Laboratory results published in PubChem BioAssay AID485294 (National Center for Advancing Translational Sciences (NCATS), 2010).
The campaign covered roughly 370,000 compounds. About 150 (0.041%) were called active. Inconclusive results, whose numbers are uncertain, are shown with a selection of clear calls. Calls come from the whole dose curve; as a rule, active = well fitted inhibition curve with a large enough effect; inconclusive = small, poorly fitted or top-dose-only effect; inactive = flat fitted curve, though single readings scatter. No potency is given beside an inconclusive call; the fits are too rough.

biological target: Beta-lactamase (Escherichia coli (strain K12)) (UniProt P00811); experiment: qHTS Inhibitors of AmpC Beta-Lactamase (assay with detergent); conditions: AmpC hydrolysis of nitrocefin, absorbance 480 nm, 0.01% Triton; activity change, negative = inhibition: at 114 µM (top of the series); note: nearly all actives have a fitted effect of over 25% in size;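 for activity change, negative = inhibition: 0% = no-compound wells and -100% = no-enzyme wells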
Summary of the method: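 20 mM phosphate pH 7.0 + 0.01% (detergent screen) or 0.0001% Triton X-100; 5.3 nM AmpC reagent; cpd preinc 15 min RT; nitrocefin (800 uM stock) to start; A480 q20 s × 4 min; Activity was normalised to no-enzyme and no-compound control wells.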
Potency is the fitted concentration of half-maximal effect; tags give direction and shape of the fitted curve.

Sequence of UniProt P00811 (P00811 whole entry, looked up): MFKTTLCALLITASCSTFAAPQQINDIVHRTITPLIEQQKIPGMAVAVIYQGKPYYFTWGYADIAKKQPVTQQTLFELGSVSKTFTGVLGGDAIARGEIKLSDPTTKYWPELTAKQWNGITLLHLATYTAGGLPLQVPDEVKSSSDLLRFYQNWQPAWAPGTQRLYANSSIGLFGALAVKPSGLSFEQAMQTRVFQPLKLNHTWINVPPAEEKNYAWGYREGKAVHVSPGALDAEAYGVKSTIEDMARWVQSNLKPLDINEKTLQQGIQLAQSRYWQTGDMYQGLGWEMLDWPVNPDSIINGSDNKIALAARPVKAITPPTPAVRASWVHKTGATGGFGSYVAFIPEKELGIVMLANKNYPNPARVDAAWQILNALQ

Compound | Potency | activity change, negative = inhibition
Cc1nc2c(C)cccn2c(=O)c1NC(=O)c1ccco1 | inconclusive [inhibitor, single point] | –
CCOC(=O)c1cnc(-n2nc(C)cc2C)nc1Nc1ccc(N(C)C)cc1 | – | inactive: -14.8%
Cn1cnc(S(=O)(=O)Nc2ccc(C(F)(F)F)cc2)c1 | inconclusive [inhibitor, full curve] | –
CCN1CCN(CCNC(=O)CS(=O)(=O)Cc2nc(-c3ccc(C)cc3)oc2C)CC1 | inconclusive [inhibitor, partial curve] | –
CCc1ccc(OC)c(-c2csc(N)n2)c1 | – | inactive: 2.04%
CC(C)C(NC(=O)c1ccccc1)C(=O)N/N=C\c1ccco1 (stereo unspecified) | inconclusive [inhibitor, full curve, poor fit] | –
COc1ccc(NC(=O)O/N=C/c2ccncc2)cc1 | – | inactive: -11.3%
O=C(CCCn1c(=O)[nH]c2ccccc2c1=O)N1CCN(c2ccccc2)CC1 | – | inactive: -2.12%
O=c1[nH]c(=O)n(-c2cc(Br)c(O)c(Br)c2)cc1Br | inconclusive [inhibitor, partial curve, poor fit] | –
Nc1ncccc1C(=O)OCC(=O)N1CCN(S(=O)(=O)c2ccc(Cl)cc2)CC1 | inconclusive [inhibitor, full curve, poor fit] | –
Cc1cc(C(=O)Nc2nnc(-c3ccccc3)s2)no1 | inconclusive [inhibitor, partial curve] | –
O=C1CCCc2[nH]c(=O)c(-c3nc(-c4cccc([N+](=O)[O-])c4)cs3)cc21 | – | inactive: 20.1%
Cc1nn(C)c(C(=O)NN)c1Cl | inconclusive [inhibitor, full curve, poor fit] | –
O=C(NC12CC3CC(CC(C3)C1)C2)c1ccccc1O | – | inactive: 3.16%
CCN(Cc1ccccc1)S(=O)(=O)c1cc(C(=O)NCC2CCCCC2)ccc1OC | inconclusive [inhibitor, partial curve, poor fit] | –
Cc1noc(C)c1CSc1nc2ccccc2c(=O)n1-c1ccc(F)cc1F | inconclusive [inhibitor, single point] | –
O=C(Nc1cccnc1)c1ccc(N2CCOCC2)c([N+](=O)[O-])c1 | inconclusive [inhibitor, partial curve, poor fit] | –
Cc1ccc(C(=O)c2sc(Nc3ccc(F)cc3)nc2N)c(C)c1 | – | inactive: 3.81%
Cc1nc(-c2ccccc2)sc1C1(C)CC(c2cccc([N+](=O)[O-])c2)=NO1 (stereo unspecified) | – | inactive: 0.679%
S=C(NCc1ccncc1)Nc1ccc(Br)cc1 | inconclusive [inhibitor, full curve] | –
CCOC(=O)c1c(NC(=O)c2ccccc2N(C)S(=O)(=O)c2ccccc2)sc2c1CCCC2 | inconclusive [inhibitor, single point] | –
Cc1ccc(C(=O)NC2CC3CCCC(C2)N3C(=O)NC2CCCCC2)cc1 (stereo unspecified) | inconclusive [inhibitor, full curve, poor fit] | –
COc1ccc(/C=C2\C(=N)N3N=C(CC(=O)N4CCCCC4)SC3=NC2=O)cc1 | – | inactive: 1.33%

Compound | Potency | activity change, negative = inhibition
CCn1c2ccccc2c2cc(/C=N/NC(=O)c3ccc(O)cc3)ccc21 | – | inactive: -8%
Cc1cccn2c(/C=N/OCc3ccc(F)cc3)c(-c3ccc(Cl)cc3)nc12 | – | inactive: -9.74%
Nc1cccn2c(-c3ccc(Cl)cc3)cnc12 | – | inactive: 4.36%
CCn1cc(C2C(C(=O)Nc3cc(C)ccn3)=C(C)NC3=C2C(=O)CC(C)(C)C3)c(C)n1 (stereo unspecified) | inconclusive [inhibitor, full curve, poor fit] | –
COc1ccc(-c2c3c(nc4sc(C(=O)Nc5cc(C)on5)c(N)c24)CCC3)cc1 | – | inactive: -1.45%
N=c1n(CCO)c2ccccc2n1CCOc1ccc(Cl)cc1Cl | inconclusive [inhibitor, full curve] | –
O=C(/C=C/c1ccccc1)Nc1cccnc1Cl | inconclusive [inhibitor, full curve] | –
CCOC(=O)c1sc(-c2ccc(Br)cc2)cc1N | inconclusive [inhibitor, partial curve] | –
O=C(CNC(=O)c1ccccc1)OCc1nnc(-c2ccccc2)o1 | inconclusive [inhibitor, full curve, poor fit] | –
COc1ccc(NC(=O)C2CCN(C(=O)c3cccs3)CC2)c(OC)c1 | – | inactive: 0.568%
ClC(Cl)=C(c1ccc(Cl)cc1)c1ccc(Cl)cc1 | inconclusive [inhibitor, full curve, poor fit] | –
CC1Cc2ccccc2N1C(=O)Cn1c(=O)oc2cc(S(=O)(=O)N3CCCCC3)ccc21 (stereo unspecified) | inconclusive [inhibitor, single point] | –
Cc1cc(C)cc(N(CC(=O)NC2CCCCC2)C(=O)c2ccc(C)s2)c1 | inconclusive [inhibitor, partial curve, poor fit] | –
NC(=O)c1sc2nc(-c3ccco3)ccc2c1N | – | inactive: 3.7%
CC(C)CN=c1cc(-c2ccccc2)oc2ccc(Cl)cc12 | inconclusive [inhibitor, full curve, poor fit] | –
Cc1sc(/C=C2\C(=O)ON=C2c2ccccc2)cc1Br | – | inactive: -9.64%
O=C(c1ccc(F)cc1)N1CCC(C(=O)N2CCN(S(=O)(=O)c3ccccc3Br)CC2)CC1 | inconclusive [inhibitor, full curve, poor fit] | –
Cc1onc(-c2ccccc2Cl)c1C(=O)Nc1ncn[nH]1 | inconclusive [inhibitor, full curve, poor fit] | –
CC(OC(=O)C1=Cc2ccccc2OC1)C(=O)NC(C)(C)C (stereo unspecified) | – | inactive: -4.4%
OC(COc1ccc2ccccc2c1)CN1CCCC1 (stereo unspecified) | inconclusive [inhibitor, full curve, poor fit] | –
O=C(Nc1cc(Cl)ccc1Oc1ccccc1)c1ccc(F)cc1 | inconclusive [inhibitor, single point] | –
COC(=O)c1ccc(Cl)c(NC(=O)c2ccc(-c3ccccc3)cc2)c1 | inconclusive [inhibitor, partial curve] | –
COc1ccc(NCc2cc3ccc(OC)cc3n(CC(=O)Nc3cccc(OC)c3)c2=O)cc1 | – | inactive: -3.6%
